Experimental data from the supplement of paper PMC10724272.

Tests used:
Assay in all cases: CLSI broth microdilution.
posaconazole = compound: CC[C@@H]([C@H](C)O)n1ncn(-c2ccc(N3CCN(c4ccc(OC[C@@H]5CO[C@@](Cn6cncn6)(c6ccc(F)cc6F)C5)cc4)CC3)cc2)c1=O [posaconazole]
flucytosine = compound: Nc1[nH]c(=O)ncc1F [flucytosine]
itraconazole = compound: CCC(C)n1ncn(-c2ccc(N3CCN(c4ccc(OCC5COC(Cn6cncn6)(c6ccc(Cl)cc6Cl)O5)cc4)CC3)cc2)c1=O [itraconazole]
caspofungin = compound: CC[C@H](C)C[C@H](C)CCCCCCCCC(=O)N[C@H]1C[C@@H](O)[C@@H](NCCN)NC(=O)[C@@H]2[C@@H](O)CCN2C(=O)[C@H]([C@H](O)CCN)NC(=O)[C@H]([C@H](O)[C@@H](O)c2ccc(O)cc2)NC(=O)[C@@H]2C[C@@H](O)CN2C(=O)[C@H]([C@@H](C)O)NC1=O [caspofungin]
anidulafungin = compound: CCCCCOc1ccc(-c2ccc(-c3ccc(C(=O)N[C@H]4C[C@@H](O)[C@@H](O)NC(=O)[C@@H]5[C@@H](O)[C@@H](C)CN5C(=O)[C@H]([C@@H](C)O)NC(=O)[C@H]([C@H](O)[C@@H](O)c5ccc(O)cc5)NC(=O)[C@@H]5C[C@@H](O)CN5C(=O)[C@H]([C@@H](C)O)NC4=O)cc3)cc2)cc1 [anidulafungin]
voriconazole = compound: C[C@@H](c1ncncc1F)[C@](O)(Cn1cncn1)c1ccc(F)cc1F [voriconazole]
fluconazole = compound: OC(Cn1cncn1)(Cn1cncn1)c1ccc(F)cc1F [fluconazole]
amphotericin B = compound: C[C@@H]1[C@H](O)[C@@H](C)/C=C/C=C/C=C/C=C/C=C/C=C/C=C/[C@H](O[C@@H]2O[C@H](C)[C@@H](O)[C@H](N)[C@@H]2O)C[C@@H]2O[C@](O)(C[C@@H](O)C[C@@H](O)[C@H](O)CC[C@@H](O)C[C@@H](O)CC(=O)O[C@H]1C)C[C@H](O)[C@H]2C(=O)O [amphotericin B]
micafungin = compound: CCCCCOc1ccc(-c2cc(-c3ccc(C(=O)N[C@H]4C[C@@H](O)[C@@H](O)NC(=O)[C@@H]5[C@@H](O)[C@@H](C)CN5C(=O)[C@H]([C@H](O)CC(N)=O)NC(=O)[C@H]([C@H](O)[C@@H](O)c5ccc(O)c(OS(=O)(=O)O)c5)NC(=O)[C@@H]5C[C@@H](O)CN5C(=O)[C@H]([C@@H](C)O)NC4=O)cc3)no2)cc1 [micafungin]

Test System	MIC (posaconazole)	MIC (flucytosine)	MIC (itraconazole)	MIC (caspofungin)	MIC (anidulafungin)	MIC (voriconazole)	MIC (fluconazole)	MIC (amphotericin B)	MIC (micafungin)
Candida tropicalis isolate 87 (ERG11 copies: 7, Erg11p: Y132F, S154F (heterozygous))	1 mg/L [R]	≤ 0.06 mg/L [S]	1 mg/L [R]	0.03 mg/L [S]	≤ 0.015 mg/L [S]	≥ 8 mg/L [R]	512 mg/L [R]	1 mg/L [S]	0.03 mg/L [S]
Candida tropicalis isolate 88 (ERG11 copies: 2, Erg11p: no key change)	0.25 mg/L [S]	≤ 0.06 mg/L [S]	0.25 mg/L [S]	0.03 mg/L [S]	≤ 0.015 mg/L [S]	0.06 mg/L [S]	1 mg/L [S]	1 mg/L [S]	0.015 mg/L [S]
Candida tropicalis isolate 89 (ERG11 copies: 2, Erg11p: no key change)	0.25 mg/L [S]	≤ 0.06 mg/L [S]	0.25 mg/L [S]	0.03 mg/L [S]	0.12 mg/L [S]	0.25 µg/mL	2 mg/L [S]	0.5 mg/L [S]	0.06 mg/L [S]
Candida tropicalis isolate 90 (ERG11 copies: 2, Erg11p: no key change)	0.06 mg/L [S]	≤ 0.06 mg/L [S]	0.12 mg/L [S]	0.03 mg/L [S]	0.06 mg/L [S]	0.06 mg/L [S]	1 mg/L [S]	0.5 mg/L [S]	0.03 mg/L [S]
Candida tropicalis isolate 91 (ERG11 copies: 2, Erg11p: no key change)	0.12 mg/L [S]	0.12 mg/L [S]	0.12 mg/L [S]	0.25 mg/L [S]	0.25 mg/L [S]	0.06 mg/L [S]	1 mg/L [S]	1 mg/L [S]	0.06 mg/L [S]
Candida tropicalis isolate 92 (ERG11 copies: 2, Erg11p: no key change)	0.12 mg/L [S]	≤ 0.06 mg/L [S]	0.12 mg/L [S]	0.03 mg/L [S]	0.12 mg/L [S]	0.06 mg/L [S]	2 mg/L [S]	1 mg/L [S]	0.03 mg/L [S]
Candida tropicalis isolate 93 (ERG11 copies: 2, Erg11p: no key change)	0.5 mg/L [R]	≤ 0.06 mg/L [S]	0.5 mg/L [S]	0.03 mg/L [S]	0.12 mg/L [S]	0.12 mg/L [S]	2 mg/L [S]	1 mg/L [S]	0.03 mg/L [S]
Candida tropicalis isolate 94 (ERG11 copies: 2, Erg11p: no key change)	0.06 mg/L [S]	≤ 0.06 mg/L [S]	0.12 mg/L [S]	0.06 mg/L [S]	0.12 mg/L [S]	0.06 mg/L [S]	1 mg/L [S]	0.5 mg/L [S]	0.03 mg/L [S]
Candida tropicalis isolate 95 (ERG11 copies: 2, Erg11p: no key change)	0.5 mg/L [R]	≤ 0.06 mg/L [S]	0.25 mg/L [S]	0.03 mg/L [S]	0.03 mg/L [S]	0.5 µg/mL	4 µg/mL	1 mg/L [S]	0.03 mg/L [S]
Candida tropicalis isolate 96 (ERG11 copies: 2, Erg11p: no key change)	0.12 mg/L [S]	≤ 0.06 mg/L [S]	0.12 mg/L [S]	0.03 mg/L [S]	0.06 mg/L [S]	0.03 mg/L [S]	1 mg/L [S]	0.5 mg/L [S]	0.03 mg/L [S]
Candida tropicalis isolate 97 (ERG11 copies: 2, Erg11p: no key change)	0.12 mg/L [S]	0.5 mg/L [S]	0.12 mg/L [S]	0.03 mg/L [S]	≤ 0.015 mg/L [S]	0.06 mg/L [S]	2 mg/L [S]	0.5 mg/L [S]	0.03 mg/L [S]
Candida tropicalis isolate 98 (ERG11 copies: 2, Erg11p: no key change)	0.25 mg/L [S]	≤ 0.06 mg/L [S]	0.25 mg/L [S]	0.03 mg/L [S]	0.03 mg/L [S]	0.12 mg/L [S]	1 mg/L [S]	1 mg/L [S]	0.03 mg/L [S]
Candida tropicalis isolate 99 (ERG11 copies: 2, Erg11p: no key change)	0.06 mg/L [S]	0.12 mg/L [S]	0.12 mg/L [S]	0.5 µg/mL	0.06 mg/L [S]	0.12 mg/L [S]	0.5 mg/L [S]	0.25 mg/L [S]	0.015 mg/L [S]
Candida tropicalis isolate 100 (ERG11 copies: 2, Erg11p: no key change)	2 mg/L [R]	≤ 0.06 mg/L [S]	1 mg/L [R]	0.25 mg/L [S]	0.06 mg/L [S]	2 mg/L [R]	64 mg/L [R]	2 mg/L [S]	0.03 mg/L [S]
Candida tropicalis isolate 101 (ERG11 copies: 2, Erg11p: no key change)	0.03 mg/L [S]	0.12 mg/L [S]	0.12 mg/L [S]	0.12 mg/L [S]	≤ 0.015 mg/L [S]	≤ 0.008 mg/L [S]	0.5 mg/L [S]	0.5 mg/L [S]	0.015 mg/L [S]
Candida tropicalis isolate 102 (ERG11 copies: 2, Erg11p: no key change)	0.25 mg/L [S]	≤ 0.06 mg/L [S]	0.12 mg/L [S]	0.03 mg/L [S]	≤ 0.015 mg/L [S]	0.06 mg/L [S]	2 mg/L [S]	1 mg/L [S]	0.03 mg/L [S]
Candida tropicalis isolate 103 (ERG11 copies: 2, Erg11p: no key change)	0.03 mg/L [S]	≥ 64 mg/L [R]	0.03 mg/L [S]	0.03 mg/L [S]	0.06 mg/L [S]	≤ 0.008 mg/L [S]	0.25 mg/L [S]	0.25 mg/L [S]	0.015 mg/L [S]
Candida tropicalis isolate 104 (ERG11 copies: 2, Erg11p: no key change)	0.03 mg/L [S]	≤ 0.06 mg/L [S]	0.03 mg/L [S]	0.03 mg/L [S]	0.03 mg/L [S]	0.03 mg/L [S]	0.5 mg/L [S]	0.5 mg/L [S]	0.03 mg/L [S]

MIC of invasive clinical C. tropicalis isolates, CLSI broth microdilution (fluconazole 0.12-256 mg/L, up to 1,024 for the azole-resistant cluster and its neighbour group; other ranges not stated); higher = less susceptible. Call: susceptible or wild type [S] / resistant or non-wild type [R] by CLSI breakpoints or cut-offs; intermediate and dose-dependent carry no call. '<=' and '>=' at the end values are inferred; the source marks only some of them. Isolates are numbered anew.
